Measured values: PubChem BioAssay (NCATS)
Values joined by “and” are separate entries in the source; they are usually repeats but may differ in a detail not shown here. Identical values can stand only once. Inconclusive means that the source gave no clear call. Such entries were picked first, then a sample of the others. For part of these data: A potency beside an inconclusive call is a rough fit, not a confirmed value. For part of these data: “Side channel” marks fits to a control or component signal instead of the main read-out. Active and inactive are the calls of the source. Unless noted, calls come from the whole dose curve; as a rule, active = well fitted curve in the direction sought with a large enough effect; inconclusive = small, poorly fitted or top-dose-only effect, or another doubt; inactive = no such curve, though single readings can be large; an effect the other way counts as inactive or inconclusive.

Test system: not listed separately
Experiment: MultiTox-Fluor Cytotoxicity Assay - LYMP1-002 - Dead Cells (AID 960); note: nearly all actives have a fitted effect of over 60% in size; note: potency is the fitted concentration of half-maximal effect;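 for cytotoxicity (dead cells): 0% = DMSO and 100% = tetraoctylammonium bromide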
Conditions: LYMP1-002 lymphoblastoid cells, dead-cell protease fluorescence; cytotoxicity (dead cells): at 46.1 µM (top of the series)
Outline: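 Readout: fluorescence at 485/520 from cell-impermeant bis-AAF-R110 cleaved by proteases leaking from damaged cells. LYMP1-002 lymphoblastoid line, 16 hr compound treatment at 37 C, concentration-response in qHTS format; Hill-equation AC50 values.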
Tags give direction and shape of the fitted curve or compound fluorescence and quenching.

Q: With C/C(Cl)=C/CCl as the molecule, how does the Potency read?
A: inconclusive: 31.6 µM [cytotoxic, single point]

Q: With O=C(O)CN(CC(=O)O)CC(=O)O as the molecule, how does the Potency read?
A: inconclusive: 20 µM [cytotoxic, partial curve, poor fit]

Q: Which “cytotoxicity (dead cells)” value does the source give for c1ccc2c(c1)-c1cccc3c1c-2cc1ccccc13 here?
A: inactive: 25.2%

Q: With O=C(O)c1cc(N=Nc2ccc([N+](=O)[O-])cc2)ccc1O as the molecule, how does the Potency read?
A: inconclusive: 20 µM [cytotoxic, partial curve, poor fit]

Q: With CC(C)OCC1CO1 (centres undefined) as the molecule, how does the Potency read?
A: inconclusive: 0.158 µM [cytotoxic, full curve, poor fit]

Q: Which Potency does the source give for CCC(Cl)CC(Cl)C(Cl)C(Cl)C(Cl)C(C)Cl (centres undefined) here?
A: inconclusive: 15.8 µM [cytotoxic, partial curve]

Q: Which “cytotoxicity (dead cells)” value does the source give for C=C(C)C1CC=C(C)C(OC(C)=O)C1 (centres undefined) here?
A: inactive: 17.6%

Q: For C1CCCNCC1, which Potency is on record?
A: inconclusive: 25.1 µM [cytotoxic, partial curve, poor fit]

Test system: not listed separately
Experiment: Cell Viability - LYMP2-004 (AID 966);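 note: plate controls were DMSO only for no effect and tetraoctylammonium bromide control for full effect; nearly all actives have a fitted effect of over 65% in size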
Conditions: LYMP2-004 lymphoblastoid cell viability, qHTS; activity change, negative = cytotoxicity: at 92.2 µM (top of the series)
Outline: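 Luminescent ATP read-out (CellTiter-Glo, 30 min RT) after 24 hr compound exposure at 37 C; 2500 lymphoblastoid cells/well, complete medium. Decrease in ATP = cytotoxicity; AC50 from standard Hill model.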

Q: Which “activity change, negative = cytotoxicity” value does the source give for CCNc1ccccc1 here?
A: inactive: -1.3%

Q: Which “activity change, negative = cytotoxicity” value does the source give for CC(=O)c1ccc(Cl)c(Cl)c1Cl here?
A: inactive: -5.5%

Q: For C=C(C)C1CC=C(C)C(OC(C)=O)C1 (centres undefined), which “activity change, negative = cytotoxicity” value is on record?
A: inactive: 0.734%

Test system: not listed separately
Experiment: Cell Viability - LYMP2-005 (AID 967); note: potency is the fitted concentration of half-maximal effect;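 for activity change, negative = viability loss: plate controls were DMSO only for no effect and 92 µM tetraoctylammonium bromide control for full effect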
Conditions: LYMP2-005 lymphoblastoid cell viability; series mostly up to 92.2 µM; activity change, negative = viability loss: at the top concentration
Outline: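 qHTS viability screen in LYMP2-005 cells: 24 h at 37 C with compound, ATP luminescence via CellTiter-Glo, AC50 from Hill curves.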

Q: With c1cc2c3c(c1)ccc1cccc(c13)C2 as the molecule, how does the “activity change, negative = viability loss” value read?
A: inactive: 4.45%

Q: Which “activity change, negative = viability loss” value does the source give for C/C(Cl)=C/CCl here?
A: inactive: -0.915%

Q: Which “activity change, negative = viability loss” value does the source give for O=C(O)c1cc(N=Nc2ccc([N+](=O)[O-])cc2)ccc1O here?
A: inactive: 2.29%

Q: Which Potency does the source give for c1ccc2c(c1)ccc1ccccc12 here?
A: inconclusive: 0.0016 µM [cytotoxic, full curve, poor fit]

Q: For CC(C)OCC1CO1 (centres undefined), which “activity change, negative = viability loss” value is on record?
A: inactive: 16%

Q: For C=C(C)C1CC=C(C)C(OC(C)=O)C1 (centres undefined), which Potency is on record?
A: inconclusive: 79.4 µM [rising, single point]

Test system: not listed separately
Experiment: Cell Viability - LYMP2-017 (AID 972);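 note: cells exposed to compound for 24 hours at 37 °C; nearly all actives have a fitted effect of over 55% in size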; note: potency is the fitted concentration of half-maximal effect; for activity change, negative = cytotoxicity: % is set by controls: 0 for no effect and ±100 for the full control effect
Conditions: LYMP2-017 lymphoblastoid cell viability; activity change, negative = cytotoxicity: at 92.2 µM (top of the series)
Outline: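 Luminescent ATP read-out (CellTiter-Glo, 30 min RT) reports viable cell number. Cells: human lymphoblastoid line, 2500 per well, 5 hr preincubation, 24 hr compound exposure at 37 C. AC50 is derived from qHTS concentration-response data using the standard Hill model.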

Q: With CCOCCOCC as the molecule, how does the “activity change, negative = cytotoxicity” value read?
A: inactive: -0.715%

Q: With Nc1ccc2c(c1)C(=O)c1ccccc1C2=O as the molecule, how does the Potency read?
A: inconclusive: 50.1 µM [cytotoxic, partial curve]

Q: Which “activity change, negative = cytotoxicity” value does the source give for Cc1cc2nc(N)sc2cc1C here?
A: inactive: -15.7%

Test system: not listed separately
Experiment: Cell Viability - LYMP2-019 (AID 973); note: nearly all actives have a fitted effect of over 55% in size; note: potency is the fitted concentration of half-maximal effect;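 for activity change, negative = cytotoxicity: 0% = DMSO alone and full effect = 92 µM tetraoctylammonium bromide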
Conditions: LYMP2-019 lymphoblastoid cell line viability; series mostly up to 92.2 µM; activity change, negative = cytotoxicity: at the top concentration
Outline: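 qHTS, 1536-well; 2500 cells/well; 5 hr pre-incubation, 24 hr compound exposure, 37 C; CellTiter-Glo added, 30 min RT; luminescence read; AC50 via standard Hill equation.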

Q: Which Potency does the source give for c1ccccc1 here?
A: inactive

Q: Which Potency does the source give for Nc1ccc2c(c1)C(=O)c1ccccc1C2=O here?
A: inconclusive: 39.8 µM [cytotoxic, partial curve]

Q: For O=C(O)c1cc(N=Nc2ccc([N+](=O)[O-])cc2)ccc1O, which Potency is on record?
A: inconclusive: 79.4 µM [cytotoxic, single point]

Test system: not listed separately
Experiment: Cell Viability - LYMP2-021 (AID 974);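 note: compound exposure lasts 24 hours at 37 °C; nearly all actives have a fitted effect of over 55% in size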; note: potency is the fitted concentration of half-maximal effect; for activity change, negative = cytotoxicity: % is set by controls: 0 for no effect and ±100 for the full control effect
Conditions: LYMP2-021 lymphoblastoid cells viability; series mostly up to 92.2 µM; activity change, negative = cytotoxicity: at the top concentration
Outline: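 ATP luminescence (CellTiter-Glo, 30 min RT) after 24 h compound exposure at 37 C; 2500 human lymphoblastoid cells/well, 5 h settle beforehand. Cytotoxicity = concentration-dependent ATP drop, AC50 by Hill fit.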

Q: For Nc1ccc2c(c1)C(=O)c1ccccc1C2=O, which Potency is on record?
A: inconclusive: 39.8 µM [cytotoxic, partial curve]

Q: Which Potency does the source give for O=C(O)c1cc(N=Nc2ccc([N+](=O)[O-])cc2)ccc1O here?
A: inconclusive: 79.4 µM [cytotoxic, single point]

Q: For Cc1ccc(C(=O)O)cc1[N+](=O)[O-], which “activity change, negative = cytotoxicity” value is on record?
A: inactive: 0.205%

Test system: not listed separately
Experiment: Cell Viability - LYMP2-012 (AID 982);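 note: cellular ATP by luciferase luminescence where a drop means cytotoxicity; cells exposed to compound for one day before reading; nearly all actives have a fitted effect of over 55% in size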; note: potency is the fitted concentration of half-maximal effect;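 for activity change, negative = cytotoxicity: 0% = DMSO only and full loss = 92 µM tetraoctylammonium bromide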
Conditions: LYMP2-012 lymphoblastoid cell viability qHTS; activity change, negative = cytotoxicity: at 92.2 µM (top of the series)

Q: With O=C(O)CN(CC(=O)O)CC(=O)O as the molecule, how does the “activity change, negative = cytotoxicity” value read?
A: inactive: -0.0768%

Q: For O=C(O)c1cc(N=Nc2ccc([N+](=O)[O-])cc2)ccc1O, which Potency is on record?
A: inconclusive: 79.4 µM [cytotoxic, single point]

Q: Which “activity change, negative = cytotoxicity” value does the source give for CCC(Cl)CC(Cl)C(Cl)C(Cl)C(Cl)C(C)Cl (centres undefined) here?
A: inactive: -0.418%

Test system: not listed separately
Experiment: Cell Viability - LYMP2-022 (AID 987); note: nearly all actives have a fitted effect of over 55% in size; note: potency is the fitted concentration of half-maximal effect;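 for viability change, negative = cytotoxic: 0% = DMSO alone and full effect = tetraoctylammonium bromide at 92 µM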
Conditions: LYMP2-022 lymphoblastoid cell viability; series mostly up to 92.2 µM; viability change, negative = cytotoxic: at the top concentration
Outline: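 Luminescent ATP read-out (CellTiter-Glo, 30 min, RT) after 24 hr, 37 C compound exposure of 2500 human lymphoblastoid cells/well in complete medium. Cytotoxicity taken as concentration-dependent ATP loss; AC50 from standard Hill equation.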

Q: Which “viability change, negative = cytotoxic” value does the source give for c1cc2c3c(c1)ccc1cccc(c13)C2 here?
A: inactive: -25.4%

Q: With Nc1ccc2c(c1)C(=O)c1ccccc1C2=O as the molecule, how does the Potency read?
A: inconclusive: 39.8 µM [cytotoxic, partial curve, poor fit]

Q: For O=C(O)c1cc(N=Nc2ccc([N+](=O)[O-])cc2)ccc1O, which Potency is on record?
A: inconclusive: 79.4 µM [cytotoxic, single point]

Test system: not listed separately
Experiment: Cell Viability - LYMP2-024 (AID 988); note: nearly all actives have a fitted effect of over 60% in size; note: potency is the fitted concentration of half-maximal effect;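 for activity change, negative = cytotoxicity: plate controls were DMSO only for no effect and 92 µM tetraoctylammonium bromide for full effect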
Conditions: LYMP2-024 lymphoblastoid cell viability; series mostly up to 92.2 µM; activity change, negative = cytotoxicity: at the top concentration
Outline: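 ATP-based luminescence (CellTiter-Glo, 30 min RT) after 24 h compound exposure at 37 C of 2500 lymphoblastoid cells/well; decrease in ATP taken as cytotoxicity. qHTS concentration-response fitted to standard Hill equation for AC50.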

Q: Which Potency does the source give for O=C(O)c1cc(N=Nc2ccc([N+](=O)[O-])cc2)ccc1O here?
A: inconclusive: 79.4 µM [cytotoxic, single point]

Q: For O=C(/C=C/c1ccc(O)c(O)c1)OC1C[C@](O)(C(=O)O)C[C@@H](O)[C@H]1O (some centres undefined), which Potency is on record?
A: inactive

Q: For Cc1ccc(C(=O)O)cc1[N+](=O)[O-], which “activity change, negative = cytotoxicity” value is on record?
A: inactive: -10.6%

Test system: not listed separately
Experiment: Cell Viability - LYMP2-026 (AID 989); note: nearly all actives have a fitted effect of over 50% in size; note: potency is the fitted concentration of half-maximal effect; for activity change, negative = cytotoxic: % is set by controls: 0 for no effect and ±100 for the full control effect
Conditions: LYMP2-026 lymphoblastoid cell viability, qHTS; series mostly up to 92.2 µM; activity change, negative = cytotoxic: at the top concentration
Outline: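 qHTS cytotoxicity: 2500 cells/well, 5 hr 37 C, compound 24 hr 37 C, CellTiter-Glo 30 min RT, luminescence. Tetraoctylammonium bromide positive control. AC50 via standard Hill fit.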

Q: For O=c1[nH]ncc2ccccc12, which “activity change, negative = cytotoxic” value is on record?
A: inactive: 6.65%

Q: For OC1CCCCC1, which “activity change, negative = cytotoxic” value is on record?
A: inactive: 3.7%

Q: Which Potency does the source give for Nc1ccc2c(c1)C(=O)c1ccccc1C2=O here?
A: inconclusive: 100 µM [cytotoxic, single point]

Q: For O=C(O)c1cc(N=Nc2ccc([N+](=O)[O-])cc2)ccc1O, which Potency is on record?
A: inconclusive: 79.4 µM [cytotoxic, single point]

Target: Estrogen receptor (Homo sapiens) (UniProt P03372)
Experiment: qHTS assay for small molecule antagonists of estrogen receptor alpha signaling (AID 588513; active = well fitted curve in the direction sought with a large enough effect in the signal ratio, with a control signal flat, not every such curve was filed as active; inconclusive = small, poorly fitted or top-dose-only effect, or effect the other way, or a change in a side signal; inactive = no such curve, though single readings can be large or run the other way; the % refers to the signal ratio; note: % is set by controls: 0 for no effect and ±100 for the full control effect)
Conditions: ER-alpha-UAS-bla HEK293, beta-lactamase ratio, antagonist mode; activity, negative = inhibition: at 76.9 µM (top of the series) unless noted
Outline: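 Cells were plated at 5000/well and incubated 4 h at 37 C. Compounds were added as 1:2 dilution series, duplicates. 17-beta-estradiol (0.5nM final) was added for 18 h before CCF4 detection.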

Sequence of UniProt P03372 (P03372 whole entry, looked up): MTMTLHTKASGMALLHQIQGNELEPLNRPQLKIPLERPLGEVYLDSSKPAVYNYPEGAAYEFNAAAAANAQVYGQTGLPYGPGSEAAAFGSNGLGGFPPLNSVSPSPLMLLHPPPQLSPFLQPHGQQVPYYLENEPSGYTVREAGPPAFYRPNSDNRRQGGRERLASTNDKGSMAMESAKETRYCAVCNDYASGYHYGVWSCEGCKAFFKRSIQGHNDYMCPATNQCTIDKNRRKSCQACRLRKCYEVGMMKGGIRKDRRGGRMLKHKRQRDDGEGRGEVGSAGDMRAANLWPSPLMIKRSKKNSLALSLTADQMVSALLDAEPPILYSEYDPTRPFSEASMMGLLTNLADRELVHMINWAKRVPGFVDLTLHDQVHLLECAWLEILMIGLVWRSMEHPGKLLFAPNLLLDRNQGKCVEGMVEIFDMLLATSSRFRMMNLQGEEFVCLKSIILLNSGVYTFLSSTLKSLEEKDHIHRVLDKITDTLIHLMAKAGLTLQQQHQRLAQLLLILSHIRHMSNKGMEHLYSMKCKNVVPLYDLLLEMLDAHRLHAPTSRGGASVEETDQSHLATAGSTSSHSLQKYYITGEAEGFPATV

Q: Which activity, negative = inhibition does the source give for c1ccccc1 here?
A: inconclusive: 10.6%

Q: Which “activity, negative = inhibition” value does the source give for O=c1[nH]ncc2ccccc12 here?
A: inactive: 11.9%

Q: For C=Cc1cccc(C)c1, which “activity, negative = inhibition” value is on record?
A: inactive: 4.25%

Q: For CC(=O)OC(C(=O)c1ccccc1)c1ccccc1 (centres undefined), which “activity, negative = inhibition” value is on record?
A: inactive: 33.1%

Q: Which “activity, negative = inhibition” value does the source give for CC=C(Cl)Cl here?
A: inactive: -7.99%

Q: Which “activity, negative = inhibition” value does the source give for C=C(C)C1CC=C(C)C(OC(C)=O)C1 (centres undefined) here?
A: inactive: 18.9%

Target: Estrogen receptor (Homo sapiens) (UniProt P03372)
Experiment: qHTS assay for small molecule agonists of estrogen receptor alpha signaling (AID 588514; calls by dose curve; note: nearly all actives have a fitted effect of over 70% in size; note: potency is the fitted concentration of half-maximal effect;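 for activation: 0% = vehicle only and 100% = reference agonist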)
Conditions: ER-alpha-UAS-bla HEK293, beta-lactamase ratio, 18 h; activation: at 76.8 µM (top of the series), percent of full estradiol response, vehicle zero unless noted
Outline: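 Read-out: CCF4 fluorescence from a beta-lactamase reporter in ER-alpha-UAS-bla HEK 293 cells after 18 hrs of compound exposure at 37 C. Normalized to 20 nM 17-beta-estradiol (100%) and DMSO (0%).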

Q: For c1ccccc1, which activation is on record?
A: inconclusive: 30.5% [at 2.03 mM, percent of full estradiol response, vehicle zero]

Q: For CCOCCOCC, which “activation” value is on record?
A: inactive: -2.16%

Q: For Nc1ccc2c(c1)C(=O)c1ccccc1C2=O, which activation is on record?
A: inconclusive: 16% and inconclusive: 23.7%

Q: With O=C(O)c1cc(N=Nc2ccc([N+](=O)[O-])cc2)ccc1O as the molecule, how does the Potency read?
A: inconclusive: 28.2 µM [side channel, rising, single point]

Q: With CC=C(Cl)Cl as the molecule, how does the activation read?
A: inconclusive: 34.5%

Target: Androgen receptor (Homo sapiens) (UniProt P10275)
Experiment: qHTS assay for small molecule agonists of androgen receptor signaling (AID 588515; active = well fitted curve in the direction sought with a large enough effect in the signal ratio, with a control signal flat; inconclusive = small, poorly fitted or top-dose-only effect, or effect the other way, or a change in a side signal; inactive = no such curve, though single readings can be large or run the other way; the % refers to the signal ratio; note: potency is the fitted concentration of half-maximal effect)
Conditions: AR-UAS-bla HEK293, beta-lactamase ratio, agonist 16 h; activation: active compounds read high
Outline: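 Stimulation of an AR-responsive β-lactamase reporter in GripTite HEK293 cells was measured after 16 h compound exposure at 37 °C, via CCF4 fluorescence after 2 h RT. EC50 from Hill fits, normalized to R1881 at 30 nM.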

Sequence of UniProt P10275 (P10275 whole entry, looked up): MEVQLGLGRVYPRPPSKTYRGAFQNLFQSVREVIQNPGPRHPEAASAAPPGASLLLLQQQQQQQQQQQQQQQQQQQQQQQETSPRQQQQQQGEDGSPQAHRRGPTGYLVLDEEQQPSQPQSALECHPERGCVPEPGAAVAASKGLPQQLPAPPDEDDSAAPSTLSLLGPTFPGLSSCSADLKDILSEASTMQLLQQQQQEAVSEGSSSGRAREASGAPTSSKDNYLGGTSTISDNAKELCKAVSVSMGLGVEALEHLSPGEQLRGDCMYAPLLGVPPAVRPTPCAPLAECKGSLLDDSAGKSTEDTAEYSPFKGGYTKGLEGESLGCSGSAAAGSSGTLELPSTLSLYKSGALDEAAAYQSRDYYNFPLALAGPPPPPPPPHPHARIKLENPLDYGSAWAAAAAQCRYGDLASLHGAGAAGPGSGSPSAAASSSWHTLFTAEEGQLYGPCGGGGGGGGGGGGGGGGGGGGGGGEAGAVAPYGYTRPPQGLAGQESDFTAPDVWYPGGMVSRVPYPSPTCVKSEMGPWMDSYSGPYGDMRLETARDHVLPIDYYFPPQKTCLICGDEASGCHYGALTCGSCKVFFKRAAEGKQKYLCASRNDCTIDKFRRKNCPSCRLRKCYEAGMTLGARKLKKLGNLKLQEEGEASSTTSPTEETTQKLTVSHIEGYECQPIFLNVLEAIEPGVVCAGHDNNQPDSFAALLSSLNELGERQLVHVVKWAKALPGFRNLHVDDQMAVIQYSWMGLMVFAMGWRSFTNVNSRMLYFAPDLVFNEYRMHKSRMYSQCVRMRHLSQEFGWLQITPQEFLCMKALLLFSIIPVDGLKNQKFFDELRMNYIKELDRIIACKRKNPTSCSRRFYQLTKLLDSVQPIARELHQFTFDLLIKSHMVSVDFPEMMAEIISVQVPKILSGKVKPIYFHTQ

Q: For C/C(Cl)=C/CCl, which activation is on record?
A: inactive: 10.2%

Q: For C[Si](C)(C)Cl, which activation is on record?
A: inconclusive: 21.3%

Q: Which Potency does the source give for Cc1cc2nc(N)sc2cc1C here?
A: inconclusive: 1.12 µM [side channel, rising, full curve, poor fit]

Q: With Cc1ccc(C(=O)O)cc1[N+](=O)[O-] as the molecule, how does the activation read?
A: inactive: 6.4%
